This passage reports GI50 and TGI results from PubChem BioAssay (NCI).

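Assay format: 96-well plates, 48-hour exposure. Abbreviation: GI50, concentration required for 50% inhibition of growth. TGI: total growth inhibition.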

The subject of this experiment is NCI-H322M lung. Kind of experiment: NCI-60 cell line screen, 48 h.

On to `CN1CCN(c2ccc(Nc3nc(NCCCNS(=O)(=O)c4ccc(F)cc4)c4sccc4n3)cc2)CC1`, for which the GI50 was 13200 nM and the TGI was 32400 nM.

As to `CC[C@H](CO)Nc1ccc2ncc(C#Cc3cncc(C(=O)Nc4ccc(CN5CCN(C)CC5)c(C(F)(F)F)c4)c3)n2n1`, the GI50 is 405 nM and the TGI turned out to be 1740 nM.

Take `NC(N)=Nc1ccc(Oc2cccc(Nc3cccc(C(F)(F)F)c3)c2)cn1`: the GI50 is 1630 nM and the TGI amounted to 3010 nM.
